The source of these data is PubChem BioAssay AID1240 (Sanford-Burnham Center for Chemical Genomics, 2008).

SMILES strings stand for the structures. In all, about 50,000 compounds went through this assay and about 800 (1.6%) showed an effect of 50% or more. The list shows a part of the results.

The target in the test is Bcl-2-like protein 10 (Homo sapiens) (UniProt Q9HD36). In words: TR3 peptide-Bcl-B binding displacers, biochemical primary FP assay, phenotype converters (AID 1240).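 Further: 0% = Bcl-B with tracer peptide and DMSO and 100% = tracer peptide lacking Bcl-B.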 The settings on record: GST-Bcl-B / FITC-TR3 peptide fluorescence polarization; stronger effect = higher value; compound at 3.75 mg/L. Background: In fluorescence polarisation assays a small probe gives low polarisation when free and higher when bound to something large.
Chain of UniProt Q9HD36 (Q9HD36 whole entry, looked up): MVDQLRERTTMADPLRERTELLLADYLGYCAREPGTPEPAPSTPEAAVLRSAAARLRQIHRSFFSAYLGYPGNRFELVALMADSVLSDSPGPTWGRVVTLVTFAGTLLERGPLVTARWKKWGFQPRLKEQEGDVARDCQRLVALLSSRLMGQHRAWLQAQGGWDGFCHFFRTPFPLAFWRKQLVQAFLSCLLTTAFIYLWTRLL
On to `Cc1ccc(N2C(=O)NC(=O)/C(=C\c3cc(Cl)c(O)c(Cl)c3)C2=O)cc1`, for which the displacement was -7.8%.

As for `COC(=O)c1ccc(/C=C2\C(=O)NC(=O)N(c3ccc(Cl)cc3)C2=O)cc1`, the displacement is 9.5%. The figure for `COc1cccc(N2C(=O)c3cccc4cccc(c34)C2=O)c1` is 11%; for `O=C1CCC(C(=O)O)(c2ccccc2)N1c1ccccc1` (centres undefined) it is 0.2%; for `CCc1ccc(NC(=O)c2c(-c3c(Cl)cccc3Cl)noc2C)cc1` it is 12%. The figure for `C/C(=N\Nc1cc(-c2ccccc2)nc(C)n1)c1ccc(N)cc1` is -9%.

For the compound `O=C(CN(c1ccccc1)S(=O)(=O)c1ccccc1[N+](=O)[O-])Nc1ccc(Br)cc1`, the displacement was -1.3%. Turning to `O=C1NC(=S)N(c2ccc(Br)cc2)C(=O)/C1=C/c1ccc(N2CCOCC2)o1`, the displacement stood at 11.2%. The figure for `CC(C)(C)c1csc(N/N=C\c2ccccc2)n1` is -3.8%; for `Cc1cc(Cl)c(OCCN2CCOCC2)c(Cl)c1` it is 0.8%. `Nc1nc(Oc2ccc(F)cc2)c(I)c(=O)[nH]1`: the displacement was -4.8%. With `O=C(O)CCN1C(=O)/C(=C/c2cn(-c3ccccc3)nc2-c2ccc(Br)cc2)SC1=S`, the displacement worked out at 20.5%. For the compound `COc1ccc(CC(=O)Nc2ccc(-c3nc4ccccc4o3)c(O)c2)cc1OC`, the displacement was 33.1%. The value for `CCn1ccnc1C(O)c1cccc(OC)c1OC` (centres undefined) was -1.3%. On to `CCOC(=O)c1c(-c2ccc(-c3ccccc3)cc2)csc1NC(=O)c1ccco1`, for which the displacement came to 16.8%.

Take `CCC(=O)Oc1cc2oc(=O)c(CC)c(C)c2cc1CC`: the displacement was 10.1%. Turning to `COc1cc(/C=N\n2nnnc2N)ccc1OCc1ccc(F)cc1`, the displacement is 10.6%. `CCOc1ccc2c(C)cc(=O)oc2c1C`: the displacement is -1.1%.

Take `O=C(c1ccncc1)N1CCN(Cc2cccc(Oc3ccccc3)c2)CC1`: the displacement was -7.2%. The figure for `CCC(C)(C)C1CCc2c(sc(NC(=O)c3ccccc3Br)c2C(N)=O)C1` (centres undefined) is 0%; for `Nc1cc(-c2ccc(Br)cc2)nn1-c1ccccc1` it is -2.7%. For the compound `COc1ccc(CSCC(=O)O)cc1C(=O)O`, the displacement is -8.5%.

Turning to `Cc1cccc(/C=C2\C(=O)NN(c3ccccc3)C2=O)c1`, the displacement stood at 17.6%. Regarding `O=C(Nc1ccc(OC(F)(F)F)cc1)c1cccnc1`, the displacement is -2.9%. Consider `Cc1cc(C(=O)COC(=O)c2ccc3c(c2)OCCO3)ccc1Br`, for which the displacement is -14.8%.

As to `COc1ccc(/C=C(/NC(=O)c2ccccc2Cl)C(=O)O)cc1`, the displacement was -4.9%. With `Cc1ccc(C2=CC(c3ccccc3)=N/C(=C(\C#N)C(N)=O)N2)cc1`, the displacement was -2.5%.

For the compound `N/C(=C\C(=O)/C=C\c1ccccc1)C(Cl)(Cl)Cl`, the displacement was -14.3%. Consider `O=C(COc1ccc(Cl)cc1Br)N/N=C/c1cccc(OC(=O)c2ccc3c(c2)OCO3)c1`, for which the displacement stood at 11.8%. The figure for `CCCCCC(=O)NNC(=O)Cc1ccc(OC)cc1` is -3.2%; for `O=C(COc1ccc(Cl)cc1)N1CCN(C(=O)c2ccc(-c3ccccc3)cc2)CC1` it is -20.5%. With `COC(=O)CN1C(CN2CCOCC2)=Nc2ccc(Br)cc2C1c1ccccc1` (centres undefined), the displacement is -3.3%. The value for `C#Cc1cccc(N2C(=O)c3ccc(C(=O)O)cc3C2=O)c1` was 3.3%; that for `CC(=O)C1=C(O)C(=O)N(CCN(C)C)C1c1cccc(F)c1` (centres undefined) was -9.1%; that for `O=c1oc(-c2cccs2)nc2ccc(Cl)cc12` was -1.3%. The figure for `O=C(Nc1ccccc1)c1ccccc1NC(=O)c1ccccc1[N+](=O)[O-]` is -11.5%. Consider `O=C(/C=C/c1ccccc1)Nc1ccc2ccccc2n1`, for which the displacement was -1.1%. The value for `COc1cc(C(=O)Nc2ccc(C(=O)O)cc2)c2ccccc2n1` was -0.3%; that for `COc1ccc(-c2cc(C(=O)Nc3ccccc3I)c3ccccc3n2)cc1` was -9.5%. Regarding `O=C1CC(c2ccccc2)CC2=C1C(c1ccccn1)Nc1ccccc1N2` (centres undefined), the displacement was -0.9%. In the case of `Cc1ccc(C(=O)N(C)C2CCCCC2)cc1[N+](=O)[O-]`, the displacement amounted to 2.8%.

For the compound `COc1cccc(OC)c1OCCCCOc1c(OC)cccc1OC`, the displacement was found to be 16.4%. For the compound `Cc1oc(C(=O)O)cc1CSC(C)C(=O)O` (centres undefined), the displacement is 8.5%. For `COc1ccc(/C=C2N=C(/C=C/c3ccccc3)OC/2=O)cc1`, the displacement came out at 88.6%. The figure for `COc1cc(/C=C/c2ccc([N+](=O)[O-])cc2[N+](=O)[O-])ccc1O` is 2.3%; for `COC(=O)c1ccccc1NC(=O)COc1ccc(Cl)c(C)c1` it is -0.4%.

As for `O=S(=O)(c1ccccc1)N1CCN(Cc2ccccn2)CC1`, the displacement is 13.4%.

`O=Cc1ccc2c3c(onc13)-c1ccccc1C2=O`: the displacement worked out at 10.6%. `CCN(CC)c1ccc(/C=N/c2nc(-c3ccccc3)c(C)s2)cc1`: the displacement came out at 4.4%. On to `OCc1c(O)cnc2ccccc12`, for which the displacement was determined as 19.4%. The figure for `COc1ccc(CSc2nc3ccccc3o2)cc1` is 4.1%; for `Cc1ccc(-n2c(O)c(/C=C3\C=Nc4ccccc43)c(=O)[nH]c2=S)cc1` it is -0.7%. `C/C(=N\NC(=O)CN(c1cc(C)ccc1C)S(=O)(=O)c1ccccc1)c1cccs1`: the displacement came to 6.3%.

Regarding `CC(NC(=O)CSc1nc2ccc(N3C(=O)c4ccccc4C3=O)cc2s1)c1ccccc1` (centres undefined), the displacement came out at 17.1%. Consider `CN(C)c1ccc(C=Nn2cnnc2)cc1`, for which the displacement is -7.2%.

As for `O=C(Nc1ccc(-c2cnc(-c3ccc(NC(=O)c4ccccc4)cc3)nc2)cc1)c1ccccc1`, the displacement is -4.4%. The figure for `Cc1ccc(N2C(=O)C(Cl)=C(N3CCN(C)CC3)C2=O)cc1` is 16.9%; for `CC(=O)Nc1ccc(S(=O)(=O)NCc2ccccc2C)cc1` it is 0%; for `O=C(COc1ccc(Cl)cc1)Oc1ccc2c(c1)oc(=O)c1ccccc12` it is 10%. The figure for `CC(=O)NCCOc1ccccc1Oc1ccccc1` is -11.5%; for `C=CCc1cc(/C=C2\C(=O)NC(=O)N(c3ccc(Cl)cc3)C2=O)cc(OC)c1O` it is -4%; for `Cc1ccc(/C=C2/C=C(c3ccccc3)OC2=O)cc1` it is 1.9%. Consider `Cc1cc(OCC(=O)NN)ccc1Cl`, for which the displacement was determined as 6.3%. As to `O=C(O)c1ccccc1SCc1ccc2c(c1)OCO2`, the displacement came to 2.8%. The figure for `COc1ccc(N2C(=O)NC(=O)/C(=C/c3ccc(-c4ccc([N+](=O)[O-])cc4Cl)o3)C2=O)cc1` is 20.3%; for `CCOc1nc(OCC)c(C=O)c(OCC)n1` it is -0.7%; for `Cc1ccc(C2CC(=O)Nc3c2cc(Br)c2ccccc32)cc1[N+](=O)[O-]` (centres undefined) it is 1.7%. The value for `CCOc1ccc(NC(=O)c2ccoc2C)cc1` was 0.6%; that for `Cc1ccc(C(=O)NCCN(C)C)cc1[N+](=O)[O-]` was 3.4%; that for `COc1cc(OC)cc(C(=O)Nc2ccc(OC)c(OC)c2)c1` was -7.7%. The figure for `COc1cc(C(=S)N2CCOCC2)cc(OC)c1OC(=O)c1cccc([N+](=O)[O-])c1` is 70.4%; for `CSc1nc2sc3c(c2c(=O)n1C)CCC3` it is -6.5%; for `CCN1C(=O)/C(=C\c2ccc(O)c(OC)c2)SC1=S` it is -3.9%. Consider `COc1ccc(N2C(=O)NC(=O)/C(=C/c3cc4c(cc3Br)OCO4)C2=O)cc1`, for which the displacement was -12.7%. With `O=C1C=CC(=O)N1c1ccc(Br)cc1[N+](=O)[O-]`, the displacement amounted to 11.7%. The figure for `O=C(CN1C(=O)c2ccccc2C1=O)NC(c1ccccc1)c1ccccc1` is 9.6%; for `COC(=O)C(=C/C=C/N(C(C)C)C(C)C)C(=O)OC` it is 8.5%; for `CN(C)CCNC(=O)c1ccc(I)cc1` it is 6%. With `CCCc1c(C)c2cccc(C)c2[nH]c1=O`, the displacement was -9.7%. The value for `C(=N/N1CCN(c2ccccc2)CC1)/c1ccccn1` was 4.6%. The figure for `CN1C(=O)c2ccc(S(=O)(=O)c3ccc(C(=O)O)cc3)cc2C1=O` is -12.7%. The figure for `N#C/C(=C(/O)c1ccc(Cl)cc1Cl)c1nc2ccccc2[nH]1` is -21.5%; for `Cc1ccc(OCC(=O)Nc2ccccc2C(N)=O)c(Br)c1` it is -3.3%; for `CCOC(=O)c1ccc(N2C(=O)NC(=O)/C(=C/c3ccc(OC)c(OC)c3)C2=O)cc1` it is -4.2%. In the case of `Cc1ccc(OCCSc2nc3ccccc3n2CCO)cc1`, the displacement is 0.7%. The figure for `CS(=O)(=O)N1CCN(Cc2ccncc2)CC1` is 13.2%; for `O=C1c2ccccc2C(=O)N1c1ccc(O)cc1` it is 5.2%; for `CCOC(=O)c1c(NC(=O)c2cc3ccccc3oc2=O)sc(C(=O)CC)c1C` it is 3%.

On to `O=C1CC(N2CCN(c3ccc([N+](=O)[O-])cc3)CC2)C(=O)N1c1ccc(F)cc1` (centres undefined), for which the displacement amounted to 5.1%. The value for `CCC1(C)CC(CC#N)(c2ccccc2OC)CCO1` (centres undefined) was -1.1%; that for `O=C(Nc1ccc2oc(-c3ccncc3)nc2c1)c1ccncc1` was 28.9%. Turning to `Cc1cc(NC(=O)c2ccc(Cl)cc2[N+](=O)[O-])no1`, the displacement was -8.9%.

As for `Nc1nc(SCCc2ccccc2)nc2sc3c(c12)CCC3`, the displacement was determined as 8.1%. As for `CCOC(=O)c1c(N=CN(C)C)c(C#N)n2c1CCC2`, the displacement was -13.1%.

For `CC(/C=C/c1ccco1)=N\NC(=O)c1cccc(F)c1`, the displacement is -5.1%. The value for `COc1cc(/C=N/NC(N)=O)ccc1Oc1nc(Nc2ccc(C)cc2Br)nc(N2CCOCC2)n1` was 0.9%. Consider `CC(=O)c1sc(NC(=O)c2ccc3c(c2)OCO3)nc1C`, for which the displacement came out at 5.6%. Consider `CC(C)(C)c1ccc(/C=C/C(=O)Nc2ccccc2C(N)=O)cc1`, for which the displacement is -5.6%. With `COc1ccc(C2Nc3ccccc3C(=O)N2Cc2ccco2)cc1` (centres undefined), the displacement was 6%. The value for `Cc1ccc(C(C)C)c(OCC(=O)Nc2ccc(NC(=O)c3ccccc3Cl)cc2)c1` was -2.1%; that for `O=[N+]([O-])c1ccc(CNCC2(c3ccccc3)CCCC2)cc1` was 6.8%; that for `O=C(CC1Sc2ccc(C(F)(F)F)cc2NC1=O)Nc1ccc(N2CCOCC2)cc1` (centres undefined) was 2.2%. As to `CCOC(=O)CSCCOc1ccc(C=C2C(=O)NC(=S)NC2=O)cc1OC`, the displacement turned out to be 10.5%. The figure for `COc1cc(/C=C(\C#N)C(N)=S)ccc1OCc1ccccc1` is -8.7%; for `O=C(N/N=C/C(Br)=C/c1ccccc1)c1cc(C2CC2)[nH]n1` it is -3.3%; for `COc1c(O)ccc(/C=N\NC(=O)c2ccc(Br)cc2)c1[N+](=O)[O-]` it is 10.5%. Take `C/C(=N/NC(=O)c1ccoc1C)c1cccc(NC(=O)c2ccc(Cl)cc2Cl)c1`: the displacement is -6.1%.

Turning to `Cc1ccc(Cl)c(OCCCN2CCOCC2)c1`, the displacement is -3.5%. Consider `Cc1onc(-c2ccccc2Cl)c1C(=O)N1CCN(Cc2ccccc2)CC1`, for which the displacement turned out to be 11.1%. For `COc1ccc(-c2c(Cc3ccccc3)nn(-c3ccccc3)c2N)cc1OC`, the displacement was -28.8%. In the case of `Fc1cccc(-c2nnc3ccc(C(F)(F)F)cn23)c1`, the displacement was -17%.

`C(=N\n1cnnc1)/c1cccc(OCCOc2ccccc2)c1`: the displacement is -2.4%. In the case of `COc1cc(O)cc(Br)c1/C=N/Nc1nc2ccccc2s1`, the displacement was -3.6%. For the compound `O=C(CCc1ccccc1)Nc1ccccc1C(=O)Nc1ccccc1`, the displacement was -14.9%.
